Data taken from the supplement of paper PMC9151546.
Many values rest on one well or one pass, so single values are uncertain.

Legend:
CHO-K1 [1] = experiment: hypodiploid nuclei frequency (% of nucleated events); higher = more hypodiploid events (aneugenic)
Protocol: (§1)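 Flow-cytometric in vitro micronucleus assay (Litron MicroFlow) in CHO-K1 cells in 96-well plates, 19 concentrations (4.5-200 µM, n=1 per concentration). Without S9, cells were exposed for 24 h and sampled at 48 h. With Aroclor 1254-induced rat liver S9, cells were exposed for 3-4 h and sampled at 27-28 h. Read-outs are %MN and %hypodiploid nuclei relative to nucleated events, and relative survival as the nuclei-to-bead ratio versus the 1% DMSO vehicle control (x100).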

CHO-K1 [2] = experiment: micronucleus frequency (% of nucleated events); higher = more micronuclei (genotoxic)
CHO-K1 [3] = experiment: relative survival (nuclei to bead ratio vs DMSO control) (% of vehicle control); higher = more surviving cells
Protocol: as §1
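For hypodiploid nuclei frequency (% of nucleated events) in this document: hypodiploid nuclei gated on a flow cytometer with 488 nm excitation after SYTOX Green staining, cultures at 37 °C, positive controls vinblastine without S9 and cyclophosphamide with S9.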
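For micronucleus frequency (% of nucleated events) in this document: cells lysed with nuclei stained by SYTOX Green, then micronucleus-gated events counted against nucleated events by flow cytometry with 488 nm excitation.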
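For relative survival (nuclei to bead ratio vs DMSO control) in this document: Lysed-cell nuclei stained with SYTOX Green and counted against counting beads by flow cytometry at 488 nm excitation, with vinblastine (no S9) and cyclophosphamide (plus S9) as positive controls.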

Nc1ccc(-c2ccc(N)cc2)cc1 [Benzidine]
Conditions	hypodiploid nuclei frequency, CHO-K1 [1] [%]	micronucleus frequency, CHO-K1 [2] [%]	relative survival, CHO-K1 [3]
concentration: 4.5 (µM), S9 metabolic activation: with S9, exposure time: 3-4 hours	0.14	1.46	140
concentration: 4.5 (µM), S9 metabolic activation: without S9, exposure time: 24 hours	0.42	1.46	115
concentration: 5.63 (µM), S9 metabolic activation: with S9, exposure time: 3-4 hours	0.18	1.32	151
concentration: 5.63 (µM), S9 metabolic activation: without S9, exposure time: 24 hours	0.66	1.24	115
concentration: 7.04 (µM), S9 metabolic activation: with S9, exposure time: 3-4 hours	0.2	1.24	134
concentration: 7.04 (µM), S9 metabolic activation: without S9, exposure time: 24 hours	0.6	1.78	100
concentration: 8.8 (µM), S9 metabolic activation: with S9, exposure time: 3-4 hours	0.36	1.42	152
concentration: 8.8 (µM), S9 metabolic activation: without S9, exposure time: 24 hours	0.64	1.62	88.8
concentration: 11 (µM), S9 metabolic activation: with S9, exposure time: 3-4 hours	0.26	1.48	168
concentration: 11 (µM), S9 metabolic activation: without S9, exposure time: 24 hours	0.62	1.5	91.2
concentration: 13.7 (µM), S9 metabolic activation: with S9, exposure time: 3-4 hours	0.14	1.48	129
concentration: 13.7 (µM), S9 metabolic activation: without S9, exposure time: 24 hours	0.96	2.02	95
concentration: 17.2 (µM), S9 metabolic activation: with S9, exposure time: 3-4 hours	0.14	1.6	137
concentration: 17.2 (µM), S9 metabolic activation: without S9, exposure time: 24 hours	0.78	1.84	88.4
concentration: 21.5 (µM), S9 metabolic activation: with S9, exposure time: 3-4 hours	0.26	1.6	141
concentration: 21.5 (µM), S9 metabolic activation: without S9, exposure time: 24 hours	0.94	2.28	85.8
concentration: 26.8 (µM), S9 metabolic activation: with S9, exposure time: 3-4 hours	0.22	1.9	242
concentration: 26.8 (µM), S9 metabolic activation: without S9, exposure time: 24 hours	1	2.14	84
concentration: 33.6 (µM), S9 metabolic activation: with S9, exposure time: 3-4 hours	0.3	1.44	146
concentration: 33.6 (µM), S9 metabolic activation: without S9, exposure time: 24 hours	1.26	2.62	86.1
concentration: 41.9 (µM), S9 metabolic activation: with S9, exposure time: 3-4 hours	0.32	0.96	118
concentration: 41.9 (µM), S9 metabolic activation: without S9, exposure time: 24 hours	1.62	2.46	79.6
concentration: 52.4 (µM), S9 metabolic activation: with S9, exposure time: 3-4 hours	0.22	1.1	125
concentration: 52.4 (µM), S9 metabolic activation: without S9, exposure time: 24 hours	2.4	3.3	82.8
concentration: 65.5 (µM), S9 metabolic activation: with S9, exposure time: 3-4 hours	0.24	1.06	104
concentration: 65.5 (µM), S9 metabolic activation: without S9, exposure time: 24 hours	2.98	2.74	64.5
concentration: 81.9 (µM), S9 metabolic activation: with S9, exposure time: 3-4 hours	0.12	1.44	153
concentration: 81.9 (µM), S9 metabolic activation: without S9, exposure time: 24 hours	2.56	3.4	63.3
concentration: 102 (µM), S9 metabolic activation: with S9, exposure time: 3-4 hours	0.42	1.08	143
concentration: 102 (µM), S9 metabolic activation: without S9, exposure time: 24 hours	2.91	3.37	50.1
concentration: 128 (µM), S9 metabolic activation: with S9, exposure time: 3-4 hours	0.16	1.5	101
concentration: 128 (µM), S9 metabolic activation: without S9, exposure time: 24 hours	3.46	3.58	51
concentration: 160 (µM), S9 metabolic activation: with S9, exposure time: 3-4 hours	0.16	1.64	127
concentration: 160 (µM), S9 metabolic activation: without S9, exposure time: 24 hours	1.94	2.97	50.1
concentration: 200 (µM), S9 metabolic activation: with S9, exposure time: 3-4 hours	0.28	1.58	115
concentration: 200 (µM), S9 metabolic activation: without S9, exposure time: 24 hours	1.2	2.5	52.8

CCN(Cc1cccc(S(=O)(=O)O)c1)c1ccc(C(=C2C=CC(=[N+](CC)Cc3cccc(S(=O)(=O)O)c3)C=C2)c2ccccc2S(=O)(=O)[O-])cc1 [FD&C Blue No. 1]
Conditions	hypodiploid nuclei frequency, CHO-K1 [1] [%]	micronucleus frequency, CHO-K1 [2] [%]	relative survival, CHO-K1 [3]
concentration: 2.9 (µM), S9 metabolic activation: with S9, exposure time: 3-4 hours	0.24	0.88	86.7
concentration: 2.9 (µM), S9 metabolic activation: without S9, exposure time: 24 hours	0.46	1.46	96.5
concentration: 3.63 (µM), S9 metabolic activation: with S9, exposure time: 3-4 hours	0.22	0.65	71.4
concentration: 3.63 (µM), S9 metabolic activation: without S9, exposure time: 24 hours	0.54	1.52	93.4
concentration: 4.54 (µM), S9 metabolic activation: with S9, exposure time: 3-4 hours	0.14	0.8	73.5
concentration: 4.54 (µM), S9 metabolic activation: without S9, exposure time: 24 hours	0.44	1.68	92.4
concentration: 5.67 (µM), S9 metabolic activation: with S9, exposure time: 3-4 hours	0.24	0.83	73.3
concentration: 5.67 (µM), S9 metabolic activation: without S9, exposure time: 24 hours	0.44	1.72	107
concentration: 7.1 (µM), S9 metabolic activation: with S9, exposure time: 3-4 hours	0.13	0.78	69.5
concentration: 7.1 (µM), S9 metabolic activation: without S9, exposure time: 24 hours	0.74	0.88	97.6
concentration: 8.9 (µM), S9 metabolic activation: with S9, exposure time: 3-4 hours	0.24	0.86	61.9
concentration: 8.9 (µM), S9 metabolic activation: without S9, exposure time: 24 hours	0.36	1.26	113
concentration: 11.1 (µM), S9 metabolic activation: with S9, exposure time: 3-4 hours	0.24	0.52	80.7
concentration: 11.1 (µM), S9 metabolic activation: without S9, exposure time: 24 hours	0.6	1.22	150
concentration: 13.9 (µM), S9 metabolic activation: with S9, exposure time: 3-4 hours	0.24	0.92	78.8
concentration: 13.9 (µM), S9 metabolic activation: without S9, exposure time: 24 hours	0.78	1.14	115
concentration: 17.3 (µM), S9 metabolic activation: with S9, exposure time: 3-4 hours	0.1	0.7	90.4
concentration: 17.3 (µM), S9 metabolic activation: without S9, exposure time: 24 hours	0.54	1.4	113
concentration: 21.6 (µM), S9 metabolic activation: with S9, exposure time: 3-4 hours	0.12	0.84	65.3
concentration: 21.6 (µM), S9 metabolic activation: without S9, exposure time: 24 hours	0.56	1.22	111
concentration: 27.1 (µM), S9 metabolic activation: with S9, exposure time: 3-4 hours	0.18	0.66	76.7
concentration: 27.1 (µM), S9 metabolic activation: without S9, exposure time: 24 hours	0.5	1.04	92.7
concentration: 33.8 (µM), S9 metabolic activation: with S9, exposure time: 3-4 hours	0.16	0.66	92.5
concentration: 33.8 (µM), S9 metabolic activation: without S9, exposure time: 24 hours	0.3	1.1	116
concentration: 42.3 (µM), S9 metabolic activation: with S9, exposure time: 3-4 hours	0.28	0.86	104
concentration: 42.3 (µM), S9 metabolic activation: without S9, exposure time: 24 hours	0.56	0.72	109
concentration: 52.8 (µM), S9 metabolic activation: with S9, exposure time: 3-4 hours	0.22	0.82	72.5
concentration: 52.8 (µM), S9 metabolic activation: without S9, exposure time: 24 hours	0.48	0.76	88.6
concentration: 66 (µM), S9 metabolic activation: with S9, exposure time: 3-4 hours	0.16	0.8	91.1
concentration: 66 (µM), S9 metabolic activation: without S9, exposure time: 24 hours	–	–	31.2
concentration: 83 (µM), S9 metabolic activation: with S9, exposure time: 3-4 hours	0.14	0.78	87.1
concentration: 83 (µM), S9 metabolic activation: without S9, exposure time: 24 hours	–	–	3.09
concentration: 103 (µM), S9 metabolic activation: with S9, exposure time: 3-4 hours	0.18	0.86	78.6
concentration: 129 (µM), S9 metabolic activation: with S9, exposure time: 3-4 hours	0.14	0.54	78.2
